Results from publication PMC5797217, “UFD-2 is an adaptor-assisted E3 ligase targeting unfolded proteins” (Nature Communications, 2018).
These are yes or no findings as the source states them, for the method shown. Some results given as binding are weak or reduced against the parent protein; the word gives no strength. Tags and fused reporters may be left off the sequences shown.

T1: C-terminally Strep-tagged UFD-2 (C. elegans) (UniProt Q09349)
T1 sequence: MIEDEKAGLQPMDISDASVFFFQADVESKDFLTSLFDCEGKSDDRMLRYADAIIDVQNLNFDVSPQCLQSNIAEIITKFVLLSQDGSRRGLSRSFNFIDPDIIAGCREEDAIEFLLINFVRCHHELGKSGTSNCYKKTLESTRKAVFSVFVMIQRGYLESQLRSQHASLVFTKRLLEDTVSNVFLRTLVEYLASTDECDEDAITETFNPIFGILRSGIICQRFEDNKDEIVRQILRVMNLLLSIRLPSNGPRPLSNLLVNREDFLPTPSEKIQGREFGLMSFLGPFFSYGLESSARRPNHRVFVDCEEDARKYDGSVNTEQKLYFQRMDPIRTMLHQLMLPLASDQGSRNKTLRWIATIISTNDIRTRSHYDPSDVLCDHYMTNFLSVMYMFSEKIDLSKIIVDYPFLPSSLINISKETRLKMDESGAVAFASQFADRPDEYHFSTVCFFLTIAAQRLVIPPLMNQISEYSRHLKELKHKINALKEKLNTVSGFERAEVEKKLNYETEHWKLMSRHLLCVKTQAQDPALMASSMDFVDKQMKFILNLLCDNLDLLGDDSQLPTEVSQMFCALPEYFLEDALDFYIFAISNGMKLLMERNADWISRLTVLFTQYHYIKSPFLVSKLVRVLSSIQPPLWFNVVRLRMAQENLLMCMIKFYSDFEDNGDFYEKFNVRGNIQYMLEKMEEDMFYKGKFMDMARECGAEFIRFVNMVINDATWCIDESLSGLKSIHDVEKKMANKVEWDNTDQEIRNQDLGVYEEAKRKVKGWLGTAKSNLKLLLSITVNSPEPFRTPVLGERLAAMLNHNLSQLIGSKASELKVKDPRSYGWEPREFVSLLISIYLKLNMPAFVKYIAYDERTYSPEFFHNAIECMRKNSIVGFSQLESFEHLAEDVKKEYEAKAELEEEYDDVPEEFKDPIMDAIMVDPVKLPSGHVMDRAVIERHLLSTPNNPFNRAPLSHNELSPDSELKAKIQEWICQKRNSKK


How the values were obtained:
[1] = target: T1, C-terminally Strep-tagged UFD-2 (C. elegans); assay: pull-down; three proteins: His6-tagged UNC-45 pre-incubated with myosin (MHC-B motor domain) 60 min 27 °C, then with Strep-UFD-2 60 min 30 °C; Strep-Tactin beads; 5 µM protein; 20 mM Tris pH 7.5, 50 mM NaCl; Coomassie; both purified
[2] = target: T1, C-terminally Strep-tagged UFD-2 (C. elegans); assay: pull-down; Strep-UFD-2 held on Strep-Tactin Superflow beads; His6-tagged UNC-45 proteins pre-incubated 60 min 27 °C, then with UFD-2 60 min 30 °C; 5 µM protein; 20 mM Tris pH 7.5, 50 mM NaCl; elution with desthiobiotin, Coomassie; both purified

Binder	binding [1]	binding [2]
UNC-45_(E781K) ts-mutant, His6-tagged (protein, UniProt G5EG62 1-961) MVARVQTAEEIRDEGNAAVKDQDYIKADELYTEALQLTTDEDKALRPVLYRNRAMARLKRDDFEGAQSDCTKALEFDGADVKALFRRSLAREQLGNVGPAFQDAKEALRLSPNDKGIVEVLQRLVKANNDKIKQTTSLANKVTDMEKLAFRGEAKDTEQKMTALNNLLVLCRESESGATGVWNQGALVPFVLNLINDASENEEVTVTAIRILDETIKNSVRCMKFLAMHDPDGPKSVRFVCRLMCKKSTKDFVDATGILVQRVFNAMAKMDRQKEMKPDPEVAEANKIWIIRVLLELQEMLQDPKVGAVQRETCIDLFLKNLMHMDGGIPRGWSWKFVEERGLLALLDVASQIPELCEYPVSAETRQHVAICLQRLEEDMVFDTKRTIFKEKVDMFFNALISRCTNDDEGHKYRIKLSCFLITMLQGPVDIGINLITNDQLTPIMLEMAASQDHLMQGIAAELIVATVSKHERAINMLKVGIPVLRALYDSEDPTVKVRALVGLCKIGAAGGDDISKATMKEEAVISLAKTCKKFLLETEKYSVDIRRYACEGLSYLSLDADVKEWIVDDSLLLKALVLLAKKAGALCVYTLATIYANLSNAFEKPKVDEEMVKLAQFAKHHVPETHPKDTEEYVEKRVRALVEEGAVPACVAVSKTESKNALELIARSLLAFAEYEDLRGRIIAEGGTVLCLRLTKEASGEGKIKAGHAIAKLGAKADPMISFPGQRAYEVVKPLCDLLHPDVEGKANYDSLLTLTNLASVSDSIRGRILKEKAIPKIEKFWFMTDHEHLRAAAAELLLNLLFFEKFYEETVAPGTDRLKLWVLYSAEVEEERLSRASAAGFAILTEDENACARIMDEIKSWPEVFKDIAMHEDAETQRRGLMGIANIMHSSNKLCSEIVSSEVFRVLVAVTKLGTINQERAGSTEQAKRGLEAAEKFGLIKATDREIYERENQMSTIQE		binds
UNC-45_(GST-UCS) (525-961), His6-tagged (domain or fragment, UniProt G5EG62 525-961) VISLAKTCKKFLLETEKYSVDIRRYACEGLSYLSLDADVKEWIVDDSLLLKALVLLAKKAGALCVYTLATIYANLSNAFEKPKVDEEMVKLAQFAKHHVPETHPKDTEEYVEKRVRALVEEGAVPACVAVSKTESKNALELIARSLLAFAEYEDLRGRIIAEGGTVLCLRLTKEASGEGKIKAGHAIAKLGAKADPMISFPGQRAYEVVKPLCDLLHPDVEGKANYDSLLTLTNLASVSDSIRGRILKEKAIPKIEEFWFMTDHEHLRAAAAELLLNLLFFEKFYEETVAPGTDRLKLWVLYSAEVEEERLSRASAAGFAILTEDENACARIMDEIKSWPEVFKDIAMHEDAETQRRGLMGIANIMHSSNKLCSEIVSSEVFRVLVAVTKLGTINQERAGSTEQAKRGLEAAEKFGLIKATDREIYERENQMSTIQE		no binding (tested: 5 µM)

Further lines, results first:

binding [1]	binding [2]	Binder
binds		C. elegans MHC-B motor domain (1-790), His6-tagged (domain or fragment, UniProt P02566 1-790, looked up, Myosin heavy chain B (MHC-B, UNC-54), C. elegans muscle myosin, motor domain residues 1-790, cloned from cDNA into pACEBac1; also called myosin; MHC-B head domain; source: High Five insect cells, purified (NiNTA, Streptactin wash fractions, SEC) or co-purified with UNC-45; not shown: His6, C-terminal, kept) MEHEKDPGWQYLRRTREQVLEDQSKPYDSKKNVWIPDPEEGYLAGEITATKGDQVTIVTARGNEVTLKKELVQEMNPPKFEKTEDMSNLSFLNDASVLHNLRSRYAAMLIYTYSGLFCVVINPYKRLPIYTDSCARMFMGKRKTEMPPHLFAVSDEAYRNMLQDHENQSMLITGESGAGKTENTKKVICYFAAVGASQQEGGAEVDPNKKKVTLEDQIVQTNPVLEAFGNAKTVRNNNSSRFGKFIRIHFNKHGRLASCDIEHYLLEKSRVIRQAPGERCYHIFYQIYSDFRPELKKELLLDLPIKDYWFVAQAELIIDGIDDVEEFQLTDEAFDILNFSAVEKQDCYRLMSAHMHMGNMKFKQRPREEQAEPDGTDEAEKASNMYGIGCEEFLKALTKPRVKVGTEWVSKGQNCEQVNWAVGAMAKGLYSRVFNWLVKKCNLTLDQKGIDRDYFIGVLDIAGFEIFDFNSFEQLWINFVNEKLQQFFNHHMFVLEQEEYAREGIQWVFIDFGLDLQACIELIEKPLGIISMLDEECIVPKATDLTLASKLVDQHLGKHPNFEKPKPPKGKQGEAHFAMRHYAGTVRYNCLNWLEKNKDPLNDTVVSAMKQSKGNDLLVEIWQDYTTQEEAAAKAKEGGGGGKKKGKSGSFMTVSMLYRESLNNLMTMLNKTHPHFIRCIIPNEKKQSGMIDAALVLNQLTCNGVLEGIRICRKGFPNRTLHPDFVQRYAILAAKEAKSDDDKKKCAEAIMSKLVNDGSLSEEMFRIGLTKVFFKAGVLAHLEDIRDEKL
	binds	UNC-45_(ΔUCS) (1-521), His6-tagged (domain or fragment, UniProt G5EG62 1-521) MVARVQTAEEIRDEGNAAVKDQDYIKADELYTEALQLTTDEDKALRPVLYRNRAMARLKRDDFEGAQSDCTKALEFDGADVKALFRRSLAREQLGNVGPAFQDAKEALRLSPNDKGIVEVLQRLVKANNDKIKQTTSLANKVTDMEKLAFRGEAKDTEQKMTALNNLLVLCRESESGATGVWNQGALVPFVLNLINDASENEEVTVTAIRILDETIKNSVRCMKFLAMHDPDGPKSVRFVCRLMCKKSTKDFVDATGILVQRVFNAMAKMDRQKEMKPDPEVAEANKIWIIRVLLELQEMLQDPKVGAVQRETCIDLFLKNLMHMDGGIPRGWSWKFVEERGLLALLDVASQIPELCEYPVSAETRQHVAICLQRLEEDMVFDTKRTIFKEKVDMFFNALISRCTNDDEGHKYRIKLSCFLITMLQGPVDIGINLITNDQLTPIMLEMAASQDHLMQGIAAELIVATVSKHERAINMLKVGIPVLRALYDSEDPTVKVRALVGLCKIGAAGGDDISKATMK
	no binding (tested: 5 µM)	UNC-45_(ΔTPR) (135-961), His6-tagged (domain or fragment, UniProt G5EG62 135-961) TTSLANKVTDMEKLAFRGEAKDTEQKMTALNNLLVLCRESESGATGVWNQGALVPFVLNLINDASENEEVTVTAIRILDETIKNSVRCMKFLAMHDPDGPKSVRFVCRLMCKKSTKDFVDATGILVQRVFNAMAKMDRQKEMKPDPEVAEANKIWIIRVLLELQEMLQDPKVGAVQRETCIDLFLKNLMHMDGGIPRGWSWKFVEERGLLALLDVASQIPELCEYPVSAETRQHVAICLQRLEEDMVFDTKRTIFKEKVDMFFNALISRCTNDDEGHKYRIKLSCFLITMLQGPVDIGINLITNDQLTPIMLEMAASQDHLMQGIAAELIVATVSKHERAINMLKVGIPVLRALYDSEDPTVKVRALVGLCKIGAAGGDDISKATMKEEAVISLAKTCKKFLLETEKYSVDIRRYACEGLSYLSLDADVKEWIVDDSLLLKALVLLAKKAGALCVYTLATIYANLSNAFEKPKVDEEMVKLAQFAKHHVPETHPKDTEEYVEKRVRALVEEGAVPACVAVSKTESKNALELIARSLLAFAEYEDLRGRIIAEGGTVLCLRLTKEASGEGKIKAGHAIAKLGAKADPMISFPGQRAYEVVKPLCDLLHPDVEGKANYDSLLTLTNLASVSDSIRGRILKEKAIPKIEEFWFMTDHEHLRAAAAELLLNLLFFEKFYEETVAPGTDRLKLWVLYSAEVEEERLSRASAAGFAILTEDENACARIMDEIKSWPEVFKDIAMHEDAETQRRGLMGIANIMHSSNKLCSEIVSSEVFRVLVAVTKLGTINQERAGSTEQAKRGLEAAEKFGLIKATDREIYERENQMSTIQE
